{
  "source": "PubChem BioAssay AID1347120",
  "about": "(National Center for Advancing Translational Sciences (NCATS), 2019)",
  "note": "About 930 (0.24%) of roughly 390,000 compounds were called active. This list was built around the results that the source calls inconclusive (neither active nor inactive); the mix of calls is not that of the screen. The call rests on the fitted dose curve; in most records, active means well fitted activation curve with a large enough effect; inconclusive means small, poorly fitted or top-dose-only effect; inactive means no such curve, though single readings can be large or run the other way. Potencies beside an inconclusive call are fits to weak or partial responses and may not hold up. Potency means the concentration at half of the fitted maximal effect; tags describe the fitted curve by direction and shape.",
  "data": [
    {"assay": "qHTS for Suppressors of FUS Proteinopathy: Primary screen using FUS-linked yeast assay; further: nearly all actives have a fitted effect of over 55% in size;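 on growth rescue (activation): plate controls were DMSO vehicle for no effect and reference control for full effect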", "details": "S. cerevisiae FUS-expressing, OD600, 24 h; Potency: growth rescue; growth rescue (activation): at 76.6 µM (top of the series)", "how_it_was_run": "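Yeast expressing FUS under galactose induction, OD 0.005 in 2% galactose medium; compounds in a dilution series, 24 h at 30C. Growth rescue by absorbance at 600 nm; CP55940 positive control, DMSO negative.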", "values": [
      {"smiles": "CN(C)c1ccc(C2=NOC(CN3C(=O)c4ccccc4S3(=O)=O)C2)cc1", "note": "(stereo not given)", "growth rescue (activation)": "inactive: -7.73%"},
      {"smiles": "O=C(Nc1ccc2nc(-c3cccnc3)[nH]c2c1)C12CC3CC(CC(C3)C1)C2", "Potency": "inconclusive: 22.4 µM [activator, partial curve, poor fit]"},
      {"smiles": "Cc1c(COc2ccc3ccccc3c2)nnn1CC(=O)NS(=O)(=O)c1ccccc1C(F)(F)F", "Potency": "inconclusive: 35.5 µM [activator, partial curve, poor fit]"},
      {"smiles": "COc1ccc(NC(=O)c2ccco2)cc1NC(=O)c1cc(Br)ccc1Cl", "growth rescue (activation)": "inactive: 40.9%"},
      {"smiles": "COc1cc(-c2nc(-c3ccccc3)c(-c3ccc(Br)cc3)[nH]2)cc(OC)c1O", "Potency": "inconclusive: 50.1 µM [activator, single point]"},
      {"smiles": "CC(=O)N(c1ccc2oc(=O)sc2c1)S(=O)(=O)c1cccs1", "Potency": "active: 28.2 µM"},
      {"smiles": "COc1cccc(CNC(=O)Cn2c(=O)nc(-c3ccccc3F)c3cc(Cl)ccc32)c1", "growth rescue (activation)": "inactive: -9.66%"},
      {"smiles": "Cc1ccc2nc(-c3ccccc3)cc(C(=O)N3CCc4ccccc4C3)c2c1", "Potency": "inconclusive: 12.6 µM [activator, partial curve, poor fit]"},
      {"smiles": "COc1cc(C=C(c2nc3ccccc3s2)c2nc3ccccc3s2)cc(OC)c1O", "Potency": "inconclusive: 39.8 µM [activator, partial curve, poor fit]"},
      {"smiles": "COc1cc2c(cc1OC)C(COc1ccccc1OC)N(C(=O)c1ccc(S(=O)(=O)N(C)C)cc1)CC2", "note": "(stereo not given)", "Potency": "inconclusive: 39.8 µM [activator, partial curve, poor fit]"},
      {"smiles": "Cc1ccc(/C=C/c2onc(C)c2S(=O)(=O)N2CCC(C(=O)N3CCN(c4cc(C)ccc4C)CC3)CC2)cc1", "Potency": "inconclusive: 44.7 µM [activator, single point]"},
      {"smiles": "Cc1ccc(Nc2nc(CSc3nnnn3-c3ccccc3)cs2)cc1", "growth rescue (activation)": "inactive: -0.759%"},
      {"smiles": "Cc1cc(C)cc(-c2c(C(=O)c3ccccc3)[nH]c(N)c2C(=O)NCCc2c[nH]c3ccccc23)c1", "Potency": "inconclusive: 14.1 µM [activator, partial curve, poor fit]"},
      {"smiles": "Cc1cccc(N2CCN(C(=O)CCNS(=O)(=O)c3ccc4c(c3)CCN4C(=O)C3CC3)CC2)c1C", "Potency": "active: 28.2 µM"},
      {"smiles": "C/C(=N\\OC(=O)NC1CCCCC1)c1sc(-c2ccccc2)nc1C", "growth rescue (activation)": "inactive: 40.8%"},
      {"smiles": "COc1ccc(Nc2cc(C)c3cc(NC(=O)COc4cccc(C)c4)ccc3n2)cc1", "Potency": "inconclusive: 28.2 µM [activator, single point]"},
      {"smiles": "CCN(CC)CCOc1ccc(/C(=C(/Cl)c2ccccc2)c2ccccc2)cc1", "Potency": "inconclusive: 28.2 µM [activator, partial curve, poor fit]"},
      {"smiles": "CCOc1ccccc1NC(=O)CN(c1cc(C)cc(C)c1)S(=O)(=O)c1c(C)nn(C)c1C", "Potency": "inconclusive: 31.6 µM [activator, single point]"},
      {"smiles": "CCOc1cc(C(=O)Nc2ccc3nc(N4CCN(C)CC4)cc(C)c3c2)cc(OCC)c1OCC", "Potency": "inconclusive: 8.91 µM [activator, partial curve, poor fit]"},
      {"smiles": "COc1ccc(Cl)cc1S(=O)(=O)Nc1cccc(C(=O)O)c1", "growth rescue (activation)": "inconclusive: 74.8% [activator]"},
      {"smiles": "Oc1oc(-c2cccc3ccccc23)nc1/C=N/c1nccs1", "Potency": "inconclusive: 8.91 µM [activator, single point]"},
      {"smiles": "Oc1ccc(C[C@H]2CN([C@@H](Cc3ccc(O)cc3)CN3CCC[C@@H]3CN3C(=S)NC[C@@H]3Cc3ccccc3)C(=S)N2CC2CCCCCC2)cc1", "Potency": "inconclusive: 35.5 µM [activator, partial curve, poor fit]"},
      {"smiles": "COc1cccc(-c2noc(C3CCCN(C(=O)c4ccc(F)cc4F)C3)n2)c1", "note": "(stereo not given)", "Potency": "inconclusive: 44.7 µM [activator, single point]"},
      {"smiles": "CC(C)(C)CCNc1nc(-c2ccccn2)nnc1-c1ccccc1", "growth rescue (activation)": "inactive: 20.6%"},
      {"smiles": "COc1cccc(/C=C2\\Sc3ccc(C(=O)NCC4CCCO4)cc3N(C)C2=O)c1", "note": "(stereo not given)", "Potency": "inconclusive: 35.5 µM [activator, single point]"},
      {"smiles": "Cc1ccc(/C=C2\\CCC3=C2OC(N)=C(C#N)C3c2ccc(C)cc2)cc1", "note": "(stereo not given)", "Potency": "inconclusive: 15.8 µM [activator, partial curve, poor fit]"},
      {"smiles": "Cc1cccc(Nc2nnc(-c3ccc(C)c(S(=O)(=O)N4CCOCC4)c3)c3ccccc23)c1", "growth rescue (activation)": "inactive: 17.3%"},
      {"smiles": "Cc1ccc(NS(=O)(=O)c2ccc3[nH]c4c(c3c2)CCCCCC4)cc1C", "Potency": "inconclusive: 31.6 µM [activator, partial curve, poor fit]"},
      {"smiles": "COc1ccc(NC(=O)Cc2coc3cc(C)c(C(C)C)cc23)cc1S(=O)(=O)N1CCOCC1", "Potency": "inconclusive: 28.2 µM [activator, single point]"},
      {"smiles": "Cc1cccc(/C=C2\\Sc3ccc(C(=O)N4CCCCC4)cc3N(C)C2=O)c1", "Potency": "inconclusive: 50.1 µM [activator, single point]"},
      {"smiles": "Cc1nc(N)sc1-c1csc(Nc2ccccc2)n1", "Potency": "inconclusive: 28.2 µM [activator, partial curve, poor fit]"},
      {"smiles": "Cc1c(-n2cc(C(=O)c3cc(Cl)ccc3O)cc(C#N)c2=O)c(=O)n(-c2ccccc2)n1C", "Potency": "inconclusive: 20 µM [activator, partial curve]"},
      {"smiles": "CCN(CC)C(=O)c1sc2c(c1C)c(=O)n(Cc1ccccc1)c(=O)n2Cc1c(C)cc(C)cc1C", "Potency": "inconclusive: 39.8 µM [activator, partial curve, poor fit]"},
      {"smiles": "O=C(NCC(c1cccnc1)N1CCc2ccccc21)c1cccc(F)c1", "note": "(stereo not given)", "growth rescue (activation)": "inactive: -9.01%"},
      {"smiles": "O=C(c1cc(C(=O)N2CCN(c3ccc(F)cc3)CC2)cc([N+](=O)[O-])c1)N1CCN(c2ccc(F)cc2)CC1", "Potency": "inconclusive: 31.6 µM [activator, partial curve, poor fit]"},
      {"smiles": "COc1ccc(CNC(=O)COC(=O)c2cc(-c3ccc(Cl)s3)nc3ccccc23)cc1", "Potency": "inconclusive: 15.8 µM [activator, partial curve, poor fit]"},
      {"smiles": "Cc1nc2ccccn2c1/C(O)=C1\\C(=O)C(=O)N(CCCn2ccnc2)C1c1ccncc1", "note": "(stereo not given)", "Potency": "inconclusive: 20 µM [activator, partial curve, poor fit]"},
      {"smiles": "CCCN(CC(=O)Nc1ccccc1OC)C(=O)c1cc(-c2ccccc2)nn1-c1ccccc1", "Potency": "inconclusive: 28.2 µM [activator, single point]"},
      {"smiles": "COC(=O)[C@]12C[C@H](CC(=O)N3CCN(C(=O)c4ccco4)CC3)C(=O)N(CCc3ccc(OC)c(OC)c3)C1=C[C@H](COCc1ccccc1)O[C@@H]2C", "Potency": "inconclusive: 7.08 µM [activator, partial curve]"},
      {"smiles": "Cc1sc2ncn(CC(=O)N3CCN(c4cccc(Cl)c4)CC3)c(=O)c2c1S(=O)(=O)N1CCC(C)CC1", "Potency": "active: 25.1 µM"},
      {"smiles": "CCOc1ccc(C(c2c(O)cc(C)n(CCOC)c2=O)N2CCN(c3ccc(F)cc3)CC2)cc1", "note": "(stereo not given)", "growth rescue (activation)": "inactive: 44%"},
      {"smiles": "Cc1ccc(C(=O)OCC(=O)Nc2cccc(S(=O)(=O)NC3=NCCCCC3)c2)c(C)c1", "Potency": "inconclusive: 39.8 µM [activator, partial curve, poor fit]"},
      {"smiles": "O=S(=O)(c1cccc(NC(=S)Nc2ccc(Br)cc2Cl)c1)N1CCOCC1", "Potency": "inconclusive: 50.1 µM [activator, single point]"},
      {"smiles": "NNC(=O)/C(=N/Nc1ccccc1)S(=O)(=O)c1ccc(Cl)cc1", "Potency": "inconclusive: 12.6 µM [activator, partial curve]"},
      {"smiles": "C=CCc1c(C)nc(-c2ccccc2)nc1N/N=C(\\C)c1ccccc1", "growth rescue (activation)": "inactive: 16.9%"},
      {"smiles": "O=C(CN1C(=O)NC2(CCc3ccccc32)C1=O)c1ccc2c(c1)OCCO2", "note": "(stereo not given)", "Potency": "inconclusive: 28.2 µM [activator, single point]"},
      {"smiles": "Cc1ccccc1C1C(C#N)=C2N=C(N)c3c(sc4c3CCCCC4)N2C2=C1C(=O)CCC2", "note": "(stereo not given)", "Potency": "inconclusive: 28.2 µM [activator, partial curve, poor fit]"},
      {"smiles": "C=CCOc1cccc(C2C(C(=O)c3cccs3)=C(O)C(=O)N2Cc2cccnc2)c1", "note": "(stereo not given)", "Potency": "inconclusive: 31.6 µM [activator, single point]"},
      {"smiles": "CCN(CC)C(=O)CSc1nnc(-c2cccs2)o1", "growth rescue (activation)": "inactive: -7.69%"},
      {"smiles": "CCN(CC)C(=O)[C@H]1C[C@H](CC(=O)NCc2ccc(OC)c(OC)c2)C(=O)N2CCc3c([nH]c4cc(-c5ccco5)ccc34)[C@]12C", "Potency": "inconclusive: 20 µM [activator, partial curve, poor fit]"},
      {"smiles": "CCOC(=O)c1cccc(Nc2nc(-c3cccnc3)nc3ccccc23)c1", "growth rescue (activation)": "inactive: 10.9%"},
      {"smiles": "CCc1ccc(-c2cc(C)no2)cc1S(=O)(=O)NCc1ccc(OC)cc1", "Potency": "inconclusive: 44.7 µM [activator, single point]"},
      {"smiles": "CC1(C(=O)Nc2ccc3c(c2)OCCO3)CCN1C(=O)C1(c2ccccc2)CC1", "note": "(stereo not given)", "growth rescue (activation)": "inactive: 15.7%"},
      {"smiles": "COc1cc(C)ccc1OCCSc1nc2ccc(NC(=O)c3ccccc3F)cc2s1", "growth rescue (activation)": "inactive: 12%"},
      {"smiles": "COc1ccccc1CNC(=O)Nc1nc(C(N)CCc2ccccc2)cs1", "note": "(stereo not given)", "Potency": "inconclusive: 44.7 µM [activator, single point]"},
      {"smiles": "CCCCOc1ccc(CN2C(=O)C(=O)c3cc(C)ccc32)cc1OC", "Potency": "inconclusive: 2.24 µM [activator, partial curve, poor fit]"},
      {"smiles": "COc1ccc(Cc2nnc(NC(=O)Cc3cccs3)s2)cc1OC", "growth rescue (activation)": "inactive: -1.59%"},
      {"smiles": "CCN(CC)C(=O)c1sc2c(c1C)c(=O)n(CCc1ccccc1)c(=O)n2Cc1cccc(Cl)c1", "Potency": "inconclusive: 31.6 µM [activator, single point]"},
      {"smiles": "N#Cc1cccc(-c2nnc(SCc3ccccc3C#N)o2)c1", "growth rescue (activation)": "inactive: 5.23%"},
      {"smiles": "COc1ccc(-c2nn(-c3ccccc3)cc2/C=N/NC(N)=S)cc1OC", "Potency": "inconclusive: 39.8 µM [activator, single point]"}
    ]}
  ]
}
